Experimental data reported in PubChem BioAssay AID493208 (National Center for Advancing Translational Sciences (NCATS), 2011).
In all, about 44,000 compounds went through this assay and about 340 (0.77%) were called active. Another 5% or so got no clear call; they are omitted. Calls follow the shape of the dose curve; as a rule, active = well fitted inhibition curve with a large enough effect; inconclusive = small, poorly fitted or top-dose-only effect; inactive = flat fitted curve, though single readings scatter. Some of the results follow.

Assay: Acumen qHTS Assay for Inhibitors of the mTORC1 Signaling Pathway in MEF (Tsc2-/-, p53-/-) Cells: Sytravon;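 also: plate controls were DMSO for no effect and rapamycin for full effect; nearly all actives have a fitted effect of over 50% in size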
Conditions: phospho-rpS6 immunofluorescence/PI, 24 h; series mostly up to 38.3 µM; activity change, negative = inhibition: at the top concentration
How it was run: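 Cell-based qHTS: Tsc2-/- p53-/- MEF, 24 h cpd, 37 °C; fix/perm, anti-phospho-S6 Alexa-488 + PI; Acumen 488 nm scan; pS6/PI ratio, % positive cells; rapamycin 7.5 nM = inhibition ref; PI count = viability.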

Activity change, negative = inhibition, inactive:
Cc1ccccc1NC(=O)c1ccc2nc(Cc3ccccc3)oc2c1 -10.7%
CC(=O)c1ccc(NS(=O)(=O)c2cc(-c3cnc(C4CC4)o3)ccc2C)cc1 -19.5%
O=C(CCSCc1cnn(-c2ccccc2)c1-n1cccc1)NCc1ccccc1F 5.16%
CCOc1ccc(NC(=O)c2cc3c(-c4ccccc4F)nn(C)c3s2)cc1 -2.64%
Cn1c(SCc2ccc(F)cc2)nc2c([nH]c3ccccc32)c1=O 2.88%
Cc1ccc(Cn2c(=O)n(-c3ccccc3)c(=O)c3ccc(C(=O)NCc4ccco4)cc32)cc1 -7.32%
C=Cc1ccc(Cn2c(C(=O)O)c(CNCc3cccs3)c3ccc(C)cc32)cc1 -23.7%
CCOC(=O)c1c(C)oc2nc(C)nc(N3CCN(c4ccc(C(C)=O)cc4)CC3)c12 0.561%
COc1cccc(C(=O)N(Cc2sccc2C)C2CCS(=O)(=O)C2)c1 (stereo not given) 3.59%
CC(C)(C)OC(=O)N1CCC(c2c(C(=O)NCc3ccc(F)cc3)cnn2-c2ccc(F)cc2)CC1 -4.2%
COc1ccc(OCC2c3cc(OC)c(OC)cc3CCN2C(=O)c2ccc(F)cc2)cc1 (stereo not given) 0.969%
CCN(CC)CCNC(=O)c1sc2nc3n(c(=O)c2c1C)CCCCC3 -3.66%
COc1ccc(C(=O)Nc2cc(-c3cccc(C)c3)nn2-c2ccccc2)cc1 0%
Cc1ccc(-c2cn3c(n2)sc2cc(C(=O)NCCCN4CCCCC4)ccc23)cc1 7.03%
COc1ccc2cc3cc(C(=O)N4CCN(c5ccc(C(C)=O)cc5)CC4)sc3nc2c1Cl -2.25%
CCOC(=O)c1ccc(NC(=O)c2c(NCc3cccs3)sc3c2CCCCC3)cc1 -21.5%
O=S(=O)(NCc1nc2cccnc2n1Cc1ccc(F)cc1)c1ccc2c(c1)CCCC2 -0.0642%
O=S(=O)(NCCc1csc2nc(-c3ccc(F)cc3)nn12)c1ccc(Br)cc1 -15.6%
Cc1cc(NC(=O)Cn2c(=O)nc(-c3ccccc3F)c3cc(Cl)ccc32)ccc1Br -6.22%
CC1=C(C(=O)Nc2ccccc2C)C(c2ccncc2)n2nc(SCc3ccccc3)nc2N1 (stereo not given) 0.639%
COc1cccc(CSc2nc3n(n2)C(c2cccs2)C(C(=O)Nc2ccccc2C)=C(C)N3)c1 (stereo not given) -0.96%
COc1cn(CC(=O)Nc2ccc(F)cc2)c(CN2CCCCC2)cc1=O -3.06%
CCOC(=O)c1c(N)n(-c2ccc(Cl)c(Cl)c2)c2nc3ccccc3nc12 0.609%
Cc1ccc(NC(=O)Cn2c(=O)n(-c3ccc(Cl)c(Cl)c3)c(=O)c3c(C)c(C)sc32)c(C)c1 -10.4%
Cc1cccc(Cn2c(CN3CCC(C(=O)NCc4cccnc4)CC3)cc3ccccc32)c1 -3.04%
CCOC(=O)c1ccc(NC(=O)CC2C(=O)N(c3cccc(OC)c3)C(=O)N2C2CCCCC2)cc1 (stereo not given) -13.5%
Cc1ccc(OCCn2cc(C(=O)C3CCCCC3)c3ccccc32)cc1 -15.1%
COc1nc(-c2ccc(C)cc2)ccc1-c1noc(-c2ccccc2Br)n1 -1.8%
COC(=O)c1ccc(Cl)cc1NC(=O)N1CCCn2nc(C)cc21 -0.381%
O=c1c2cccnc2n(Cc2ccccc2F)c(=O)n1Cc1ccccc1Cl 0.0263%
Cc1ccc(C)c(N2CCN(C(=O)CN3CCSc4ccc(S(=O)(=O)N(C)C)cc43)CC2)c1 -0.892%
CC(=O)Nc1nonc1-c1nnc(SCC(=O)Nc2cc(C)cc(C)c2)n1C -13.4%
CCCCOC(=O)CSc1nnc(-c2ccccc2)o1 0.574%
Cc1oc2ncn(CC(C)C)c(=O)c2c1C(=O)N1CCN(c2ccc(F)cc2)CC1 0.891%
COc1ccccc1CNc1ccc(-c2nc(C)no2)cc1[N+](=O)[O-] -2.95%
O=C(c1ccc(C(F)(F)F)cc1)N1CCC(c2nc(-c3ccc(S(=O)(=O)N4CCCC4)cc3)no2)CC1 -2.76%
COc1cccc(NC(=O)/C(C#N)=C\c2cn(Cc3ccc(C)cc3)c3ccccc23)c1 13.6%
COc1ccc(-c2oc3ncn4nc(-c5ccccc5Br)nc4c3c2-c2ccc(OC)cc2)cc1 6.63%
Cc1ccc(C)c(NC(=O)Cn2cc(C(=O)C3CCCCC3)c3ccccc32)c1 2.78%
O=C(c1ccc2c(c1)N(Cc1cccc(Cl)c1)C(=O)c1ccccc1S2(=O)=O)N1CCCCC1 -0.971%
Cc1ccc2[nH]c3c(=O)n(CC(=O)N(C)c4cc(Cl)ccc4C)ncc3c2c1 -2.37%
COc1cccc2c1Oc1ncccc1N(C(=O)CCC(=O)NCc1ccc(N(C)C)cc1)C2 -2.14%
COc1cccc(NC(=O)c2oc3ccccc3c2NC(=O)c2ccc(C(F)(F)F)cc2)c1 0.888%
O=C(CN1CCCN(Cc2ccc(Cl)cc2)S1(=O)=O)Nc1ccccc1F 0.202%
CCOC(=O)c1c(C)[nH]c(C)c1S(=O)(=O)N1CCC(C(=O)N2CCN(c3ccc(Cl)cc3)CC2)CC1 -3.71%
COc1ccc(-n2c(=O)c3c4c(sc3n(Cc3ccccc3)c2=O)CN(C(C)=O)CC4)cc1OC -3.13%
COc1ccccc1NC(=O)c1ccc2c(Cl)c3c(nc2c1)CCCC3 -18.7%
CC1=C(c2ccc(C)c(C)c2)S(=O)(=O)N=C1N1CCC(C(=O)NCCc2ccc(Cl)cc2)CC1 -11.6%
COc1cc(Cl)c(C)cc1NC(=O)c1cc2ccc3cccnc3c2[nH]1 -1.87%
O=C(c1cc(=O)c2cc(Cl)ccc2o1)N(Cc1ccccc1)C1CCS(=O)(=O)C1 (stereo not given) -0.655%
CC(=O)OCc1cnc(C)c2oc(=O)c(C(=O)Nc3cccc(F)c3)cc12 0%
Cc1nc(N2CCCC2)c2c(C(=O)Nc3cccc(Cl)c3C)c(C)oc2n1 -3.09%
Cc1ccc(-n2ncc3c(NCCCc4ccccc4)ncnc32)cc1 12.2%
COc1ccc(NC(=O)CSc2nc3nc(C)c(Cc4ccc(C)cc4)c(C)n3n2)cc1OC 7.56%
COc1ccc(Cl)cc1-n1nnc(-c2nc(-c3ccc4c(c3)OCO4)no2)c1C 6.77%
COc1cc2[nH]c(=O)n(Cc3ccc(C(=O)NCc4ccccc4)cc3)c(=O)c2cc1OC -13.8%
Cc1cccc(C)c1NC(=O)c1csc2c1CCCC2 -3.52%
COc1ccccc1NC(=O)C(=O)c1cc(C)n(-c2ccccc2F)c1C -8.68%
Cc1ccc(NC(=O)Nc2nnc(SCC(=O)Nc3ccc(F)cc3F)s2)cc1 -1.79%
CCCCN1CC(c2nc3ccccc3n2CCCCOc2ccc(C)cc2C)CC1=O (stereo not given) -0.108%
Cc1ccc(-n2ncc3c(NCCCN4CCOCC4)ncnc32)cc1Cl 3.92%
O=C(NCCCc1nc2ccccc2n1Cc1cccc(Cl)c1)c1ccco1 5.56%
Cc1ccc2c(=O)cc(C(=O)Nc3ccc(S(=O)(=O)Nc4onc(C)c4C)cc3)oc2c1C 2.02%
O=C(CSc1oc(-c2ccccc2)nc1S(=O)(=O)c1ccc(Cl)cc1)c1ccccc1 -1.41%
Cc1ccc(-n2cc(C(=O)Oc3ccc(F)cc3)c3ccccc3c2=O)cc1 -11.7%
O=C(CC1C(=O)N(c2ccc(F)cc2)C(=O)N1Cc1ccc2c(c1)OCO2)Nc1ccc(Cl)cc1 (stereo not given) 4.56%
Cc1cc(C)nc(-n2nc(C)c3c2N(Cc2ccccc2)C(=O)CC3c2ccc(Cl)cc2)n1 (stereo not given) -1.72%
CCN(C(=O)Cn1c(=O)n(-c2ccccc2)c(=O)c2ccc(C(=O)NCc3ccc4c(c3)OCO4)cc21)c1cccc(C)c1 -3.15%
Cc1c(Cl)cccc1NS(=O)(=O)c1ccc(-c2cnc(C3CC3)o2)cc1 -2.58%
Cc1cc(C)cc(OCC(=O)Nc2c(C(=O)c3ccccc3)oc3ccccc23)c1 -9.33%
O=C(CCn1c(=O)c2cccn2c2cccnc21)Nc1ccccc1C(F)(F)F -5.53%
CCC(=O)N1c2ccccc2CC1C(=O)NCc1cc(OC)ccc1OC (stereo not given) -5.68%
CC(C)c1ccc(NC(=O)c2cc(S(=O)(=O)N(C)C3CCCCC3)ccc2F)cc1 0.931%
CCCCn1cnc2cc(NCc3ccc(OCC)cc3)ccc21 -4.61%
CCOc1ccc(NC(=O)c2cc(S(=O)(=O)N3CCc4ccccc43)ccc2F)cc1 -7.62%
O=C(CCC(=O)c1ccc(F)cc1)Nc1ccc(Cl)cc1 -1.53%
CCn1cc(S(=O)(=O)c2cccc(C)c2)c(=O)c2cc(F)c(N3CCCC(C)C3)cc21 (stereo not given) -6.22%
O=C(c1ccc2c(c1)N(Cc1ccccc1F)C(=O)c1ccccc1S2(=O)=O)N1CCN(c2ccccn2)CC1 0.498%
CCOc1ccc(CNC(=O)C2CCCCN2S(=O)(=O)c2ccc(F)cc2)cc1OC (stereo not given) 1.22%
COc1ccc(-c2nc3c(c(SC)n2)Cc2c(CO)cnc(C)c2O3)cc1 2.26%
CCn1c(=O)c2cc(C(=O)NCCCN3CCN(C)CC3)sc2c2ccccc21 1.47%
Cc1ccccc1NC(=O)c1c(C)oc2ccc(O)c(CN3CCOCC3)c12 -9.27%
O=C(CSc1n[nH]c(-c2ccccc2Cl)n1)NCc1ccc(F)cc1 5.87%
NC(=O)c1c(NC(=O)CS(=O)(=O)c2ccc(Cl)cc2)sc2c1CCCCC2 -1.24%
COc1ccc(S(=O)(=O)NCc2nc3nc(C)cc(C)n3n2)cc1 -1.68%
Cc1ccc(Nc2c(-c3ccc(Br)o3)nc3ccccn23)cc1 0.49%
O=C(NCCCN1CCN(c2cccc(Cl)c2)CC1)c1sc2ncccc2c1-n1cccc1 -10.6%
Cc1ccc(-c2nc(CS(=O)(=O)CC(=O)Nc3ccc(Br)cc3F)c(C)o2)cc1 -12.2%
CCC(=O)Oc1c(Sc2ccc(Cl)cc2)c(C)nn1-c1ccccc1 -5.74%
Cc1ccc(Cl)cc1N1CCN(C(=O)Cn2ncc3c4ccccc4n(C)c3c2=O)CC1 0.0796%
CCOc1ccc(NC(=O)CSC2=Nc3ccccc3C3=NC(CCC(=O)NCc4ccco4)C(=O)N23)cc1 (stereo not given) 0.512%
CC1CCCN(c2nc3c(-c4ccc(Cl)cc4)nnn3c3ccccc23)C1 (stereo not given) 6.19%
Cc1cc(Cl)ccc1NS(=O)(=O)c1c(C(=O)N2CCC(C)CC2)c(C)n(C)c1C 5.92%
COc1ccc2oc(=O)c(-c3nnc(-c4ccc(C)cc4)o3)cc2c1 12.4%
Cc1cc2c(cc1S(=O)(=O)Nc1ccc(OC(F)(F)F)cc1)OCC(=O)N2 -2.67%
